Reference: the BET-seq Pho4 binding data (Le et al. 2018)
The other results are listed elsewhere or left out. These are noisy estimates, calculated here from bound and input reads.

Molecular target: T1, Pho4 (S. cerevisiae) (UniProt P07270)
T1 sequence: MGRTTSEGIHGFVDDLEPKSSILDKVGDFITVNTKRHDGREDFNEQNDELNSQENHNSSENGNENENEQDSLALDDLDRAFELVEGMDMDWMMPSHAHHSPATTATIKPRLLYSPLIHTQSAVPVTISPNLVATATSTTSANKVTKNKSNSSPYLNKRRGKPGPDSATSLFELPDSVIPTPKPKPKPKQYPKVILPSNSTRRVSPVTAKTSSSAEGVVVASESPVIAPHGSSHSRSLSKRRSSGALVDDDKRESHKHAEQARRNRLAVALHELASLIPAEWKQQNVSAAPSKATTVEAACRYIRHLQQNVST
Experiment: relative binding free energy (BET-seq); higher = weaker binding
Details: reference: library average

Row | Sequence | relative binding free energy [kcal/mol]
1 | ATAGGCACGTGGATTC | 0.04
2 | TGGTGCACGTGAGGCT | 0.18
3 | TATCGCACGTGTGATA | 0
4 | TATATCACGTGGACGG | 0.24
5 | TTTTTCACGTGCACTG | 0.15
6 | GGTTGCACGTGTATTC | 0.08
7 | ATGTTCACGTGGTCGA | 0.2
8 | GTAGCCACGTGTAGTT | 0.07
9 | AGGTTCACGTGATCTT | 0.43
10 | ATATGCACGTGTATAG | 0.04
11 | TTTTTCACGTGAGTCT | 0.41
12 | ATGTTCACGTGTTGGT | 0.28
13 | TAAGCCACGTGTCGTG | 0.1
14 | GTGCTCACGTGTTAGT | 0.23
15 | GGTGACACGTGGATAG | 0.05
16 | GCGGTCACGTGAGATT | 0.44
17 | TCATGCACGTGGGGCG | -0.11
18 | CAATACACGTGGTGTG | -0.11
19 | TTATGCACGTGGATCT | -0.07
20 | TTGAGCACGTGTCGAT | -0.08
21 | TATTTCACGTGTCGTG | 0.15
22 | ATATGCACGTGAATTT | 0.07
23 | AGGTGCACGTGGTTTT | -0.17

Row | Sequence | relative binding free energy [kcal/mol]
24 | TATAGCACGTGTAGAG | 0.07
25 | AAGGGCACGTGGCATT | -0.22
26 | ATCCTCACGTGGTGGG | 0.17
27 | CTGTGCACGTGATGGA | 0.1
28 | CTTGGCACGTGTGAAG | -0.1
29 | GAAGTCACGTGGGACG | 0.04
30 | TGGTGCACGTGAGATC | 0.33
31 | TTGTGCACGTGCCGGG | -0.03
32 | GGATCCACGTGGGCGT | 0.07
33 | TAAAGCACGTGTAAAT | 0.24
34 | GGGTTCACGTGTATTC | 0.25
35 | CTGTTCACGTGTAGAT | 0.49
36 | TGGGTCACGTGTTGCA | 0.2
37 | CTTTGCACGTGTAGTC | 0.13
38 | ATTATCACGTGAGAAG | 0.29
39 | GGACGCACGTGAGGTA | 0.12
40 | ATTAGCACGTGTTAAA | 0.08
41 | GGTATCACGTGGTAAT | 0.15
42 | TGTGTCACGTGCGTGG | -0.06
43 | GGAGACACGTGGGGCT | -0.09
44 | TCTATCACGTGCGGTG | 0.11
45 | GATGGCACGTGTCGGC | 0.01
46 | TTATTCACGTGTCGTG | 0.19

Row | Sequence | relative binding free energy [kcal/mol]
47 | TAATTCACGTGTTGTC | 0.36
48 | TGGGTCACGTGTGGTG | 0.18
49 | ATTAACACGTGTTGGG | 0.06
50 | GGTAACACGTGGCTGG | 0.04
51 | GTTTGCACGTGGCGTG | -0.05
52 | AATTTCACGTGGGGTC | 0.23
53 | CATGTCACGTGGTCTG | -0.03
54 | TGTTGCACGTGCAGGA | -0.05
55 | GGCCACACGTGTAGGG | 0.12
56 | AGGTACACGTGGTGGC | -0.03
57 | GTTAGCACGTGTATCT | -0.01
58 | TATTTCACGTGAGGTT | 0.25
59 | GCTTGCACGTGTTAGT | -0.01
60 | TGACGCACGTGTATGT | -0.18
61 | TTGATCACGTGCGTCT | 0.1
62 | TATGTCACGTGGAGGT | 0.18
63 | GTTTGCACGTGGGCGT | -0.03
64 | TGAAACACGTGTTATG | -0.02
65 | ACATGCACGTGGATGG | -0.08
66 | GGTTGCACGTGTAGAG | 0.21
67 | AGATGCACGTGTGGTT | -0.02
68 | TAAGTCACGTGATCTT | 0.15
69 | GAGGGCACGTGTGTGA | -0.04

Row | Sequence | relative binding free energy [kcal/mol]
70 | TGGTGCACGTGTCCGT | -0.18
71 | GGTTTCACGTGTTTAC | 0.4
72 | TGAAGCACGTGGGCGC | -0.08
73 | AAATACACGTGGATTG | 0.16
74 | AGATTCACGTGGGGGG | 0.21
75 | TATATCACGTGCAGGT | -0.03
76 | TTTGTCACGTGCATCG | -0.02
77 | TATAGCACGTGAGTTC | 0.17
78 | AAAGACACGTGGTTTT | 0.09
79 | GTTTTCACGTGGCTTG | 0.31
80 | GGTCACACGTGTCGGG | 0.02
81 | TGGAACACGTGGTAAT | -0.08
82 | TTATTCACGTGTTAGC | 0.19
83 | TTATTCACGTGGCTGG | 0.18
84 | AGTAACACGTGGGTGC | -0.13
85 | GTTTACACGTGCGTGG | 0.16
86 | GCTATCACGTGGCGGG | 0.13
87 | GGGAGCACGTGAGGTG | 0.24
88 | CGGTGCACGTGGTGAA | -0.16
89 | CGTACCACGTGTGGTT | 0.09
90 | ATGTACACGTGGGCCG | -0.14
91 | AGAAGCACGTGCTGTA | -0.01
92 | TTTCTCACGTGGAGTT | 0.42

Row | Sequence | relative binding free energy [kcal/mol]
93 | GGGCCCACGTGGGATG | -0.02
94 | CAAGGCACGTGTTGTG | -0.15
95 | TTATTCACGTGGGTGC | 0.1
96 | TCTTCCACGTGAGGGG | 0.27
97 | ATTGACACGTGGTGTA | -0.19
98 | GTGTACACGTGAGTTC | 0.26
99 | CTTGGCACGTGAGTGG | 0
100 | GTTATCACGTGATGGT | 0.31
101 | TGGTTCACGTGACTCG | 0.33
102 | GGAGACACGTGGGGGG | -0.14
103 | GTATTCACGTGATAGA | 0.24
104 | TAGGGCACGTGTCGAT | 0.02
105 | ATGGTCACGTGGTTAG | 0.1
106 | TTGAGCACGTGTAGCG | -0.09
107 | AGTTACACGTGTTTCG | -0.03
108 | TGGAGCACGTGAGGGG | 0.18
109 | GCGTTCACGTGCGTTG | 0.22
110 | GACTGCACGTGGGGTC | -0.1
111 | AGGCGCACGTGGAGGG | -0.1
112 | TGGTGCACGTGTGATA | 0.1
113 | TTGTTCACGTGTATGA | 0.2
114 | AGATGCACGTGATCGT | 0.19
115 | GGGGCCACGTGGAGAT | -0.09
